# Measured values reported in the supplement of paper PMC13380429.
# Experiments:
# Conditions in all cases: 72 h
# [1] = tested on: Caco-2; test: cell viability relative to DMSO; higher = less toxic
# [2] = tested on: Calu-3; test: as above
# [3] = tested on: U2OS; test: as above
# [4] = tested on: Vero E6; test: as above
# [5] = tested on: HepG2; test: as above
# [6] = tested on: Caco-2; test: relative viability EC50 (midpoint between 100% and the lowest measured viability); higher = less toxic
# [7] = tested on: Calu-3; test: as above
# [8] = tested on: U2OS; test: as above
# [9] = tested on: Vero E6; test: as above
# [10] = tested on: HepG2; test: as above
# [11] = tested on: Caco-2; test: drug sensitivity score (DSS) for viability; higher = more toxic; extreme values may be limits of the assay
# [12] = tested on: Calu-3; test: as above
# [13] = tested on: U2OS; test: as above
# [14] = tested on: Vero E6; test: as above
# [15] = tested on: HepG2; test: as above
smiles,measurement,setting,value
Cc1ccccc1-n1c(Cn2nc(-c3cccc(O)c3)c3c(N)ncnc32)nc2cccc(C)c2c1=O [PIK-294],cell viability,[1]; 1 nM,105%
same,cell viability,[1]; 10 nM,97.4%
same,cell viability,[1]; 100 nM,107%
same,cell viability,[1]; 1000 nM,95%
same,cell viability,[1]; 10000 nM,76.5%
same,cell viability,[2]; 1 nM,97.3%
same,cell viability,[2]; 10 nM,94%
same,cell viability,[2]; 100 nM,96.7%
same,cell viability,[2]; 1000 nM,88.3%
same,cell viability,[2]; 10000 nM,82.9%
same,cell viability,[3]; 1 nM,95.6%
same,cell viability,[3]; 10 nM,96.1%
same,cell viability,[3]; 100 nM,99.6%
same,cell viability,[3]; 1000 nM,94.9%
same,cell viability,[3]; 10000 nM,94.4%
same,cell viability,[4]; 1 nM,104%
same,cell viability,[4]; 10 nM,103%
same,cell viability,[4]; 100 nM,102%
same,cell viability,[4]; 1000 nM,95.9%
same,cell viability,[4]; 10000 nM,88.7%
same,cell viability,[5]; 1 nM,99.6%
same,cell viability,[5]; 10 nM,111%
same,cell viability,[5]; 100 nM,104%
same,cell viability,[5]; 1000 nM,97.1%
same,cell viability,[5]; 10000 nM,87.4%
same,relative viability EC50,[6],> 10 µM
same,relative viability EC50,[7],> 10 µM
same,relative viability EC50,[8],> 10 µM
same,relative viability EC50,[9],> 10 µM
same,relative viability EC50,[10],> 10 µM
same,drug sensitivity score,[11],1.6
same,drug sensitivity score,[12],0.8
same,drug sensitivity score,[13],0
same,drug sensitivity score,[14],0.1
same,drug sensitivity score,[15],0.2
